In all, about 33,000 sequences were measured (“E-score (-0.5 to 0.5)”: median about -0.016, highest 2% from about 0.31 on). The list shows a part of the results.
What follows are sequences tested against Cst6 (UniProt P40535) (assay: PBM E-score (8-mer binding enrichment) (E-score (-0.5 to 0.5)); higher = stronger / more preferred TF binding; most listed sequences are background and not binding sites). Conditions: protein concentration: 200 nM; construct: GST-DNA-binding domain.
Method in brief: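 Yeast transcription factors, full-length or as DNA-binding domains, were expressed with a GST tag using PURExpress in vitro transcription/translation. At about 100-200 nM they were applied to universal all-10-mer Agilent arrays, double-stranded by primer extension on fresh or once-stripped slides. Fluorescent anti-GST detected bound protein, and masliner normalised the scans. E-scores for ungapped eight-base words, pooled with reverse complements, came from the Universal PBM Analysis Suite.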
ACAGGTGA was tested, and the “PBM E-score” value was 0.0585.
For CAGGACGC, the “PBM E-score” value was -0.0827.
TGTGTCAA was tested, and the “PBM E-score” value was 0.123.
For CAAATATA, the “PBM E-score” value was 0.225.
For CGCGATGC, the “PBM E-score” value was -0.266.
In the case of GCAACGGA, the “PBM E-score” value is reported as -0.0853.
With GTTTGAGA the “PBM E-score” value was 0.126.
With CAGTACCG the “PBM E-score” value was -0.071.
For TAAGCAAA, the “PBM E-score” value was 0.117.
For ATAGAAGC, the “PBM E-score” value was 0.0756.
CGTAGAAC was tested, and the “PBM E-score” value was -0.19.
In the case of AACTCACC, the “PBM E-score” value is reported as -0.0518.
In the case of ACAATCTC, the “PBM E-score” value is reported as 0.00613.
GAAAAATC was tested, and the “PBM E-score” value was 0.0723.
In the case of GACGTTTA, the “PBM E-score” value is reported as 0.273.
For CTGTCTAC, the “PBM E-score” value was 0.0335.
With ACTGGCCG the “PBM E-score” value was -0.356.
In the case of AGGATGTA, the “PBM E-score” value is reported as 0.0787.
With AGGGGCAA the “PBM E-score” value was -0.246.
In the case of AAGTGATG, the “PBM E-score” value is reported as 0.273.
In the case of AGTGTTGA, the “PBM E-score” value is reported as 0.197.
CATTGGGG was tested, and the “PBM E-score” value was -0.18.
In the case of CAGGGTTC, the “PBM E-score” value is reported as -0.244.
In the case of ATCCATTC, the “PBM E-score” value is reported as 0.11.
AAAGCGAA was tested, and the “PBM E-score” value was -0.0259.
AGTCTAGG was tested, and the “PBM E-score” value was -0.346.
In the case of GGGACCGA, the “PBM E-score” value is reported as -0.258.
With GGTATTAC the “PBM E-score” value was 0.21.
In the case of CGTACTGC, the “PBM E-score” value is reported as 0.0389.
In the case of AATACCCA, the “PBM E-score” value is reported as -0.141.
With AAACAAGG the “PBM E-score” value was 0.0197.
With GTAAGACA the “PBM E-score” value was 0.191.
With TATTTAAA the “PBM E-score” value was 0.308.
For AATTGCAC, the “PBM E-score” value was 0.0926.
AGTTCCAA was tested, and the “PBM E-score” value was -0.0607.
CAGGTCGA was tested, and the “PBM E-score” value was -0.0317.
In the case of ACGAAACC, the “PBM E-score” value is reported as 0.117.
For ACTTCTCG, the “PBM E-score” value was 0.155.
With AACTCGTC the “PBM E-score” value was 0.201.
For AAGTTGAG, the “PBM E-score” value was -0.154.
GGATTCGA was tested, and the “PBM E-score” value was -0.204.
AAGACTGT was tested, and the “PBM E-score” value was -0.162.
In the case of CCATTTAA, the “PBM E-score” value is reported as 0.195.
For ATCCTTGG, the “PBM E-score” value was 0.0653.
With AGAAAAAA the “PBM E-score” value was 0.249.
With CACTCAGC the “PBM E-score” value was -0.119.
In the case of GCACCGAA, the “PBM E-score” value is reported as 0.0718.
AATTCGAG was tested, and the “PBM E-score” value was -0.0256.
In the case of CTACATCC, the “PBM E-score” value is reported as -0.0142.
With CATAAGTC the “PBM E-score” value was -0.0617.
In the case of CAGTACAC, the “PBM E-score” value is reported as -0.00752.
With AATAGTGC the “PBM E-score” value was -0.0125.
GGACGTCC was tested, and the “PBM E-score” value was -0.128.
CCCCAACC was tested, and the “PBM E-score” value was -0.0534.
In the case of CCCGGGAG, the “PBM E-score” value is reported as -0.236.
GTACTGCA was tested, and the “PBM E-score” value was -0.0985.
For ACTGCTCT, the “PBM E-score” value was -0.0408.
GTGTCAGA was tested, and the “PBM E-score” value was -0.0004.
In the case of GACCAATC, the “PBM E-score” value is reported as -0.00213.
In the case of TCCCTGCA, the “PBM E-score” value is reported as -0.0815.
For GACGTGCC, the “PBM E-score” value was 0.014.
For AGGGGGTC, the “PBM E-score” value was -0.385.
In the case of ATGGCCTA, the “PBM E-score” value is reported as -0.123.
With ATTAACGG the “PBM E-score” value was 0.0695.
In the case of GTTGAGAA, the “PBM E-score” value is reported as -0.0503.
AGGCCGTA was tested, and the “PBM E-score” value was 0.0502.
With CGCATGCA the “PBM E-score” value was 0.0755.
AGCGGTGA was tested, and the “PBM E-score” value was 0.192.
For ACTAAGAG, the “PBM E-score” value was -0.0881.
In the case of AGTAATAA, the “PBM E-score” value is reported as 0.302.
With GATTTCGA the “PBM E-score” value was 0.134.
For CAGAACAG, the “PBM E-score” value was -0.123.
AGAAAGAC was tested, and the “PBM E-score” value was -0.157.
In the case of GAAATGCC, the “PBM E-score” value is reported as 0.116.
With AGGTAGTA the “PBM E-score” value was 0.0537.
For CAGCCCGA, the “PBM E-score” value was -0.29.
ACGCAGCG was tested, and the “PBM E-score” value was 0.0172.
In the case of ACTCTTCC, the “PBM E-score” value is reported as -0.143.
With AACACTGG the “PBM E-score” value was -0.0752.
With CGATGGAA the “PBM E-score” value was 0.107.
With ACAGCCAG the “PBM E-score” value was -0.088.
ATTCATCA was tested, and the “PBM E-score” value was 0.218.
With GAAGACCA the “PBM E-score” value was -0.213.
For ATAAGAGC, the “PBM E-score” value was 0.0402.
With GAGTAGAA the “PBM E-score” value was 0.0886.
ACGCGGCC was tested, and the “PBM E-score” value was 0.0568.
For CGGAAGGC, the “PBM E-score” value was -0.255.
In the case of CCTGCTAA, the “PBM E-score” value is reported as -0.222.
GCGCACCA was tested, and the “PBM E-score” value was -0.0013.
AGCCGTAA was tested, and the “PBM E-score” value was 0.259.
TCTAAACA was tested, and the “PBM E-score” value was 0.0833.
With GTATGTCA the “PBM E-score” value was 0.422.
For GAGCAGCC, the “PBM E-score” value was -0.0952.
In the case of CTATGCAG, the “PBM E-score” value is reported as 0.00763.
In the case of AAAATTGT, the “PBM E-score” value is reported as 0.151.
With AAGAGGAT the “PBM E-score” value was -0.116.
In the case of ACAAGATC, the “PBM E-score” value is reported as -0.0252.
In the case of GAGGGCAA, the “PBM E-score” value is reported as 0.0197.
In the case of TACTGGCA, the “PBM E-score” value is reported as -0.0625.
For CACCTAGA, the “PBM E-score” value was -0.148.
TACTCGGA was tested, and the “PBM E-score” value was 0.0206.
In the case of AACCTACA, the “PBM E-score” value is reported as 0.0728.
With AGGAACAC the “PBM E-score” value was 0.0247.
With ATGCGACG the “PBM E-score” value was 0.106.
With AGTCATTC the “PBM E-score” value was 0.0571.
With CTTACGAA the “PBM E-score” value was 0.119.
With AGTCAGGA the “PBM E-score” value was -0.168.
In the case of AGGGAAGC, the “PBM E-score” value is reported as -0.302.
In the case of TCGAGAAA, the “PBM E-score” value is reported as 0.108.
In the case of GCGGGGAA, the “PBM E-score” value is reported as -0.0925.
For CTGCCAAG, the “PBM E-score” value was 0.0469.
AGAAAAAG was tested, and the “PBM E-score” value was 0.00776.
With GAAGGCCC the “PBM E-score” value was -0.252.
For CCTTCCCG, the “PBM E-score” value was -0.29.
In the case of CGGGCCGA, the “PBM E-score” value is reported as -0.167.
CCGAATGC was tested, and the “PBM E-score” value was -0.0132.
TCCTAGCA was tested, and the “PBM E-score” value was -0.162.
With TTCAAGAA the “PBM E-score” value was 0.162.
For GGTTGTAA, the “PBM E-score” value was 0.0531.
GTCTTTAA was tested, and the “PBM E-score” value was 0.0991.
CCGTATAG was tested, and the “PBM E-score” value was 0.0115.
For ATTTTATG, the “PBM E-score” value was 0.248.
With CTACGTGC the “PBM E-score” value was -0.0624.
With CCAGTACG the “PBM E-score” value was 0.0129.
For GCAGAAGA, the “PBM E-score” value was 0.0891.
AGACATAA was tested, and the “PBM E-score” value was 0.0351.
In the case of ATCGCGGG, the “PBM E-score” value is reported as -0.0694.
For AGTCTGAG, the “PBM E-score” value was -0.113.
In the case of AGTTAAGG, the “PBM E-score” value is reported as -0.0423.
In the case of ACATAGCA, the “PBM E-score” value is reported as 0.164.
In the case of ACTGCTCG, the “PBM E-score” value is reported as -0.072.
With CTATTTAA the “PBM E-score” value was -0.0505.
With TAGGAATA the “PBM E-score” value was 0.0565.
In the case of GAGTACGA, the “PBM E-score” value is reported as -0.0415.
GCCATGGA was tested, and the “PBM E-score” value was -0.156.
In the case of TCGGCTCA, the “PBM E-score” value is reported as -0.0753.
In the case of GCAGTATA, the “PBM E-score” value is reported as 0.0148.
In the case of CGTCGCGA, the “PBM E-score” value is reported as 0.109.
In the case of ACCTGGCT, the “PBM E-score” value is reported as -0.19.
With AACATGAC the “PBM E-score” value was 0.272.
With TATCGGAA the “PBM E-score” value was 0.0336.
With GTCGCTTA the “PBM E-score” value was -0.0207.
In the case of GTGCCCTA, the “PBM E-score” value is reported as -0.22.
AATCCCAG was tested, and the “PBM E-score” value was -0.152.
In the case of CTAGCGAC, the “PBM E-score” value is reported as -0.105.
In the case of AGTCCATC, the “PBM E-score” value is reported as -0.167.
In the case of AGGACTAG, the “PBM E-score” value is reported as -0.171.
In the case of GATGCACC, the “PBM E-score” value is reported as -0.163.
With GATTGCCC the “PBM E-score” value was -0.14.
For CGTTTGTC, the “PBM E-score” value was 0.124.
With CTAACCAC the “PBM E-score” value was -0.0139.
ACTGCTTC was tested, and the “PBM E-score” value was -0.151.
AATGTTCA was tested, and the “PBM E-score” value was 0.0469.
In the case of CAAGAAGG, the “PBM E-score” value is reported as -0.00479.
For GTGGACCA, the “PBM E-score” value was -0.107.
In the case of CGGGGGCC, the “PBM E-score” value is reported as -0.372.
In the case of CACTCTGC, the “PBM E-score” value is reported as 0.0254.
AGACTGAT was tested, and the “PBM E-score” value was -0.00128.
GGTCGGTA was tested, and the “PBM E-score” value was -0.121.
For CGTCAAGC, the “PBM E-score” value was 0.0721.
For GTCCGTGA, the “PBM E-score” value was 0.0214.
For CTAAAACC, the “PBM E-score” value was -0.046.
With CGGCCTAG the “PBM E-score” value was -0.245.
In the case of ACTACTCA, the “PBM E-score” value is reported as 0.209.
For ACGTACGT, the “PBM E-score” value was 0.311.
For ACCGAGCG, the “PBM E-score” value was -0.103.
With CGCGTCGA the “PBM E-score” value was 0.155.
For ACAGCACG, the “PBM E-score” value was -0.0932.
For AAAGGCAC, the “PBM E-score” value was 0.189.
In the case of AGTACAAG, the “PBM E-score” value is reported as -0.133.
AACACCAA was tested, and the “PBM E-score” value was 0.0956.
In the case of ATCATTTC, the “PBM E-score” value is reported as 0.246.

From the supplement of paper PMC3334620
